Results as given in PubChem BioAssay AID1159614 (National Center for Advancing Translational Sciences (NCATS), 2016).
The campaign covered roughly 45,000 compounds. About 65 (0.1%) were called active. The call rests on the fitted dose curve; in most records, active means well fitted activation curve with a large enough effect; inconclusive means small, poorly fitted or top-dose-only effect; inactive means no such curve, though single readings can be large or run the other way. This is one part of the list.

What follows are compounds tested against Galactocerebrosidase (Homo sapiens) (UniProt P54803) (assay: A Novel Cell-Based Assay to Identify Small Molecules for B -Galactocerebrosidase). Conditions: 145M-Twi-hGALC-G270D cells (Twitcher mouse brain line with human GALC G270D), HMU-beta-Gal fluorescence, 48 h; series mostly up to 57.5 µM; activation: at the top concentration.
Chain of UniProt P54803 (P54803 whole entry, looked up): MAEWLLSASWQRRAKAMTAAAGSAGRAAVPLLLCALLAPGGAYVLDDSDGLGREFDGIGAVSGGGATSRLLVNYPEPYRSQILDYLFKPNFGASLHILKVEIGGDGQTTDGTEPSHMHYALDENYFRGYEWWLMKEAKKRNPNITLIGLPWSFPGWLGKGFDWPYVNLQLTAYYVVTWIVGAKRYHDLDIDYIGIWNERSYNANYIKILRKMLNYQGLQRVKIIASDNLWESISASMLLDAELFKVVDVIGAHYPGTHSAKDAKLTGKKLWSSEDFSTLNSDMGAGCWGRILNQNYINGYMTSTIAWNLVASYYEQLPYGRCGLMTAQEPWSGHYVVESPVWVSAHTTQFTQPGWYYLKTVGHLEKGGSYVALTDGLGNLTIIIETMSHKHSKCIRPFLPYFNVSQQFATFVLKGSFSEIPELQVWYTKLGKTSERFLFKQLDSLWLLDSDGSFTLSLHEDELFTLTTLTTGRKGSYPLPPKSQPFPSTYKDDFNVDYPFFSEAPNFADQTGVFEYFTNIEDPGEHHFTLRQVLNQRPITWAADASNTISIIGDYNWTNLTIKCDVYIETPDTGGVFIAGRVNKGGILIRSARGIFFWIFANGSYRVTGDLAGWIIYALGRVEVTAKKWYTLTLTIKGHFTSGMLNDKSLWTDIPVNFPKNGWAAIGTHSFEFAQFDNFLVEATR
Method in brief: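 Live 145M-Twi cells (Twitcher mouse brain-derived, GALC-null) stably expressing human GALC-G270D, with a wild-type GALC line, were compound-treated. Residual GALC activity was then read as fluorescence from 0.1 mM final HMU-β-gal at pH 5.2; higher signal means activation.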
Further: 0% is about no effect; nearly all actives have a fitted effect of over 65% in size.

Structure (SMILES)	activation
Cc1cccc2nc(-c3cccc(NS(=O)(=O)c4ccccc4)c3)cn12	inactive: -20%
Cc1ccc(C)c(CSc2nc3ccncc3n2CC(=O)Nc2ccc(N(C)C)cc2)c1	inactive: -14.6%
CCC(C)NC(=O)CSc1nc2c(sc3ccccc32)c(=O)n1Cc1ccccc1Cl (configuration not stated)	inactive: -20.1%
Cc1ccccc1OCc1nnc(SCc2cc(=O)c3cccc(F)c3[nH]2)n1C	inactive: -10.8%
CC(=O)c1ccc(NC(=O)COCc2cc(-c3ccco3)on2)cc1	inactive: -11%
COc1cccc(N2CC(NC(=O)c3cccc(OC)c3OC)CC2=O)c1 (configuration not stated)	inactive: -1.34%
Fc1ccccc1Cn1c(-c2ccccc2)nc2ccccc21	inactive: -12.5%
COCCCNC(=O)CSc1nc2c(sc3ccccc32)c(=O)n1CCCC(=O)NCCOC	inactive: -19.7%
Cc1ccc(-c2cc(C(=O)Oc3ccccc3)c3cc(C)ccc3n2)cc1	inactive: -6.76%
COc1ccc2c(c1)c1c(c(=O)n(-c3cccc(Cl)c3)c(=O)n1CC(=O)N1CCCC1)n2C	inactive: -0.299%
CCOc1ccccc1NC(=O)Cn1ccn(Cc2ccc(C)cc2)c(=O)c1=O	inactive: -11%
CCOC(=O)Cn1nc(C)c(NC(=O)COc2ccc(Cl)cc2C)c1C	inactive: -29.8%
COc1ccc2nc(NC(=O)c3nc(S(=O)(=O)Cc4cccc(C)c4)ncc3Cl)sc2c1	inactive: -11.5%
Clc1ccccc1CN1CCc2sccc2C1	inactive: -10.2%
Cc1cc(NC(=O)C2CCN(S(=O)(=O)c3ccc4[nH]c(=O)oc4c3)CC2)ccc1Br	inactive: -12.5%
CCC1CCCCN1CCCNC(=O)CN1C(=O)CSc2ccc(S(=O)(=O)N3CCOCC3)cc21 (configuration not stated)	inactive: -16%
CC(C)(C)C(=O)NCCc1csc2nc(-c3ccc(F)cc3)nn12	inactive: -9.59%
Cc1ccc(Cl)cc1N1CCN(CCNC(=O)Nc2ccccc2Cl)CC1	inactive: -9.64%
COc1cc(NC(=O)c2nc(-c3ccncc3)no2)cc(OC)c1OC	inactive: -16.3%
COc1ccc(/C=C\C(=O)NC2CC(=O)N(c3ccccc3)C2)cc1OC (configuration not stated)	inactive: -14.2%
Cc1ccc(NC(=O)C(Cc2c[nH]c3ccccc23)NC(=O)OCC(C)C)cc1 (configuration not stated)	inactive: -13.6%
COC(=O)c1nc2n(n1)C(c1cc(OC)ccc1OC)C(C(=O)Nc1ccc(C)cc1C)=C(C)N2 (configuration not stated)	inactive: 3.17%
Cc1ccc(CN(C(=O)COc2c(C)cccc2C)C2CCS(=O)(=O)C2)o1 (configuration not stated)	inactive: -7.89%
Nc1ccc(O)c(C(=O)O)c1	inactive: -8.32%
Cc1ccc2oc3c(c(=O)c2c1)C1(C(=O)N(C)c2ccccc21)N(CCCO)C3=O (configuration not stated)	inactive: -8.16%

Structure (SMILES)	activation
Cc1ccc(Cl)cc1NC(=O)C(=O)NCC(c1cccnc1)N1CCc2ccccc21 (configuration not stated)	inactive: -15.7%
O=C(CCS(=O)(=O)c1cccc2nsnc12)Nc1ccc(F)cc1	inactive: -4.75%
CCc1ccc(-n2c(=O)c3c4c(sc3n(CC(=O)c3ccc(Cl)cc3)c2=O)CCC4)cc1	inactive: 8.08%
CSc1cccc(NC(=O)C2CCN(C(=O)c3cnn(-c4ccccc4)c3-n3cccc3)CC2)c1	inactive: 8.18%
COc1ccc2oc(-c3ccc(C)c(NC(=O)COc4cc(C)cc(C)c4)c3)nc2c1	inactive: -15.3%
Cc1ccccc1C(=O)Nc1cc(-c2ccc(Cl)cc2)nn1-c1ccccc1	inactive: -11.5%
Cc1ccc2c(c1)C(c1ccc(F)cc1)N(C(=O)c1ccc(OC(C)C)cc1)CC(=O)N2 (configuration not stated)	inactive: 2.86%
Cc1nn(-c2ccc(N3CCOCC3)nn2)c(C)c1CCC(=O)NCc1ccc(F)cc1	inactive: -4.5%
Cc1ccc(-n2nnc(C(=O)Nc3cc(F)ccc3F)c2C)cc1F	inactive: -21%
O=C(c1ccccc1)N1c2ncnn2C2(CCCCC2)[C@@H]2CCCC[C@@H]21	inactive: -16.3%
COc1ccc(C(=O)CSc2c(C(C)C)cnc3c2c(=O)n(C)c(=O)n3C)cc1	inactive: -10.5%
Cc1ccc(NC(=O)C2CCN(c3cc(C)nc4c(-c5ccc(Cl)cc5)c(C)nn34)CC2)c(C)c1	inactive: -11.6%
COc1ccccc1N1CCN(C(=O)CN2C(=O)COc3ccc(S(=O)(=O)N4CCC(C)CC4)cc32)CC1	inactive: 1.94%
Cn1ncc2nc(SCC(=O)Nc3ccc(Br)cc3F)n(Cc3ccccc3)c(=O)c21	inactive: -1.07%
Cc1ccn2c(=O)cc(COc3ccc(NC(=O)c4ccccc4F)cc3)nc2c1	inactive: -8.18%
CCOc1ccc(NC(=O)CSc2nc3c(oc4ccccc43)c(=O)n2CCOC)cc1	inactive: -0.773%
COc1cc2[nH]c(=O)n(CCCC(=O)N3CCN(c4cccc(C(F)(F)F)c4)CC3)c(=O)c2cc1OC	inactive: -6.76%
COc1ccc(N2CCN(c3oc(-c4ccc(COc5cccc(C)c5)o4)nc3C#N)CC2)cc1	inactive: -5.25%
Cc1ccc(NC(=O)CN(C)S(=O)(=O)c2ccc3[nH]c4c(c3c2)CCCC4)c(Cl)c1	inactive: -13.7%
COc1ccc(CC(=O)NCCc2csc3nc(-c4ccccc4F)nn23)cc1	inactive: -13.9%
COc1cccc2cc(-c3nnc(Nc4c(F)cccc4F)s3)c(=O)oc12	inactive: -8.01%
CSc1ncc(C(=O)N2CCN(c3cc(Cl)ccc3C)CC2)c(C)n1	inactive: -10.1%
CCCN(C(=O)CCc1nc(-c2ccc(OC)cc2)no1)c1ccccc1F	inactive: -18.9%
COc1cc(-c2nc(Cn3nnc(C(=O)Nc4ccc(C)cc4C)c3C)c(C)o2)cc(OC)c1OC	inactive: -11.4%
Cc1oc(-c2ccccc2F)nc1CS(=O)(=O)CC(=O)NCCc1ccc(Cl)cc1	inactive: -4.77%

Structure (SMILES)	activation
Cc1ccc(C)c2sc(N3CCN(C(=O)C(C)(C)C)CC3)nc12	inactive: 16.1%
CCN(CCCNC(=O)c1cc2c(Cl)nc3ccccc3c2s1)Cc1ccccc1	inactive: 16.3%
CCOc1ccc(CCNC(=O)c2ccc(-n3c(C)cc4c3CCC(C)C4)cc2)cc1OCC (configuration not stated)	inactive: -16.6%
CCC(=O)c1cc2c(cc1NC(=O)c1ccccc1F)OCCO2	inactive: -12.2%
CCN(CC)c1sc(S(=O)(=O)c2ccccc2)nc1S(=O)(=O)c1ccc(C)cc1	inactive: -9.43%
CC1=C(C(=O)Nc2ccc(C)cc2Cl)C2(CCCCCC2)OC1=O	inactive: -9.83%
CC(=O)N1c2ccc(S(=O)(=O)NCCC(=O)Nc3ccc(Br)c(C)c3)cc2CC1C (configuration not stated)	inactive: -16%
Cc1cccc(NC(=O)c2sc3nc(N4CCOCC4)c4c(c3c2N)CC(C)(C)OC4)c1	inactive: -13.7%
COc1ccc(NC(=O)Cn2ncc3c2-c2ccccc2OC3)cc1Cl	inactive: -27.6%
O=C(CSc1nc2c([nH]c3ccccc32)c(=O)n1-c1ccccc1)Nc1ccc2c(c1)OCCO2	inactive: -16.7%
COc1ccccc1C(=O)Nc1ccc(OCc2cc(=O)n3ccsc3n2)cc1	inactive: 0.52%
CCCCOc1cccc(C(=O)N(Cc2cccs2)c2ccc(OC)cc2)c1	inactive: -13.3%
CCCCNC(=O)C1CCC(CNS(=O)(=O)c2ccc(Cl)cc2)CC1 (configuration not stated)	inactive: -0.734%
CCc1ccc(S(=O)(=O)N(C(=O)Oc2ccccc2)c2ccc3oc(C)c(C(=O)OC)c3c2)cc1	inactive: -29%
CC(C)(C)c1ccc(-c2nc(SCC(=O)Nc3ccc(Cl)cc3)[nH]c(=O)c2C#N)cc1	inactive: -10.4%
CC(=O)NCCn1c(SCC(=O)Nc2ccc(C)cc2)nc2ccccc2c1=O	inactive: -19.5%
CCN(CC)CCNC(=O)Nc1ccc2c(c1)N(Cc1ccccc1)C(=O)c1ccccc1S2	inactive: -9.96%
COc1ccc(N2CC(NC(=O)c3ccc(S(=O)(=O)N4CCOCC4)cc3)CC2=O)cc1OC (configuration not stated)	inactive: 3.06%
COc1ccccc1CNC(=O)CC(c1ccc(OC)c(OC)c1)N1Cc2ccccc2C1=O (configuration not stated)	inactive: -25.6%
CCc1cnc2c(c1SCC(=O)c1ccc(OC)cc1)c(=O)n(C)c(=O)n2C	inactive: -15.4%
COc1ccc(OC)c(/C=C/C(=O)Nc2ccc(C(=O)OCCC(C)C)cc2)c1	inactive: -12.4%
O=S(=O)(NCc1ccc(Cl)cc1)c1ccc(-c2cnc(C3CC3)o2)cc1	inactive: -8.96%
Cc1ccccc1CN1C(=O)c2ccccc2Sc2ccc(C(=O)NC3CCCC3)cc21	inactive: 1.28%
CCN(Cc1ccccc1)c1ncnc2c1nnn2C	inactive: -24.3%
CCCCN(CCCC)C(=O)C1CCN(S(=O)(=O)c2cccc3nsnc23)CC1	inactive: 7.98%

Structure (SMILES)	activation
Cc1ccc(Cl)cc1-n1ncc2c(N3CCCCCC3)ncnc21	inactive: -29.8%
COc1cccc(-n2c(-c3cccc(F)c3)nc3c(cnn3-c3ccc(C)cc3)c2=O)c1	inactive: -7.02%
Cc1c(-c2ccc(Cl)cc2)c(=O)oc2ccc(OC(=O)N3CCOCC3)cc12	inactive: -20.5%
CCc1ccc(S(=O)(=O)c2nnn3c2nc(Nc2ccc(F)cc2)c2cc(Cl)ccc23)cc1	inactive: 22.1%
CCC(C)NC(=O)CCSc1nc(-c2ccc(OC)cc2)cc(C(F)(F)F)n1 (configuration not stated)	inactive: -2.7%
O=C(O)c1cccc(Nc2ncnc3scc(-c4ccccc4)c23)c1	inactive: -21.4%
O=C(NCc1ccc(F)cc1)c1cc(-c2ccc(Cl)cc2)n[nH]1	inactive: -9.23%
Cc1ccc(C(=O)Nc2nnc(S(=O)(=O)N3CCc4ccccc43)s2)cc1	inactive: -7.41%
Cc1ccccc1C(=O)Oc1c(Sc2ccccc2)c(C)nn1C(C)(C)C	inactive: -10.8%
COc1ccc(NC(=O)c2cc(CN3CCCC3)on2)cc1Cl	inactive: -10.5%
CCOc1ccc(CCNC(=O)CCSCc2ccc(Cl)cc2)cc1OCC	inactive: -11.1%
CCOC(=O)CSc1nc2sc3c(c2c(=O)n1-c1ccccc1)CCC(C(C)(C)C)C3 (configuration not stated)	inactive: -26.5%
CCC(=O)N1CCc2cc(Br)cc(S(=O)(=O)N3CCCC(C(=O)Nc4cccc(F)c4)C3)c21 (configuration not stated)	inactive: -11.4%
CC(C)Oc1ccc(CNC(=O)c2cccc(NC(=O)N3CCSc4ncccc43)c2)cc1	inactive: -9.8%
Cc1cccc(Cc2c(C)nc3nc(SCC(=O)NCc4ccccc4)nn3c2C)c1	inactive: -6.71%
CCOc1ccc(NC(=O)c2cnc(Nc3ccccc3OC)c3ccccc23)cc1	inactive: -10.4%
COc1ccc(CCNC(=O)Cn2ncc3c(=O)oc4ccccc4c32)c(OC)c1	inactive: -15.3%
CCOc1ccc(NC(=O)c2oc3ccccc3c2NC(=O)c2cc(C)cc(C)c2)cc1	inactive: -5.16%
CCc1ccc2oc(-c3cc(NC(=O)c4cccnc4)cc(C)c3O)nc2c1	inactive: -8.19%
COc1ccc(CC(=O)NCc2ccc3c(c2)CCN3C(=O)c2ccc(Cl)cc2)cc1	inactive: -15.1%
CCOC(=O)c1cc(-c2ccccc2)n(-c2cccc(C(=O)Nc3cc(OC)cc(OC)c3)c2)c1C	inactive: 1.12%
Cc1cc(C)cc(Oc2c(C(F)(F)F)oc3cc(OCC(=O)NC4CCCCC4)ccc3c2=O)c1	inactive: -9.63%
